Measured values reported in PubChem BioAssay AID485297 (National Center for Advancing Translational Sciences (NCATS), 2010).
Out of some 320,000 compounds screened, about 9,100 (2.8%) were called active. This list was built around the results that the source calls inconclusive (neither active nor inactive); the mix of calls is not that of the screen. The call rests on the fitted dose curve; in most records, active means well fitted activation curve with a large enough effect; inconclusive means small, poorly fitted or top-dose-only effect; inactive means no such curve, though single readings can be large or run the other way. Potencies of inconclusive entries are left out as doubtful fits.

experiment: qHTS Assay for Rab9 Promoter Activators; conditions: Huh7 Rab9 promoter-luciferase reporter, luminescence, 24 h; series mostly up to 9.22 µM; activation, negative = inhibition: at the top concentration; further: nearly all actives have a fitted effect of over 60% in size; on activation, negative = inhibition: % of control where 0% means no effect
Method in brief: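 Steps: seed 1500 Huh7 Rab9-luc cells per well, rest 2 h at 37 °C; add compound in DMSO; incubate 24 h; add luciferase reagent, 10 min ambient; read luminescence.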
Potency means the concentration at half of the fitted maximal effect; tags describe the fitted curve by direction and shape.

Which “activation, negative = inhibition” value does the source give for `O=C(NCc1ccccc1)c1ccccc1OCC(=O)N1CCCCC1` here?
Its value is inactive: -8.98%.

With `COc1n[nH]c(C(=O)Nc2nc3ccccc3s2)c1[N+](=O)[O-]` as the compound, how does the Potency read?
The Potency was inconclusive [activator, partial curve].

Which Potency does the source give for `CC(=O)Nc1nnc(-c2ccc3c(c2)CCCC3)o1` here?
Its Potency is active: 3.98 µM.

Which Potency does the source give for `CCN(CC)c1ccc(C(=O)n2cnc3ccccc32)cc1` here?
Its Potency is inconclusive [activator, partial curve, poor fit].

With `CSc1nc(O)c(/C=C2\C=Nc3ccccc32)[nH]1` as the compound, how does the Potency read?
The Potency was inconclusive [activator, partial curve].

For `Nc1ccc(-c2nc3cc(N)ccc3o2)cc1`, which Potency is on record?
The Potency was active: 0.631 µM.

With `CSc1nnc(NC(=O)CCc2ccccc2)s1` as the compound, how does the Potency read?
Its Potency is inconclusive [activator, partial curve, poor fit].

Which “activation, negative = inhibition” value does the source give for `N#Cc1c(Cl)nc2c(c1C#N)CCCC2` here?
The value was inactive: -6.32%.

With `CN(C)c1ccnc(Oc2ccc(Cl)cc2)c1C#N` as the compound, how does the Potency read?
Its Potency is inconclusive [activator, partial curve].

For `Cc1ccc(OCCCN2CCOCC2)c([N+](=O)[O-])c1`, which Potency is on record?
The Potency was inconclusive [activator, single point].

Which Potency does the source give for `COc1cc(/C=C2/C(=N)N3C(SC)=NSC3=NC2=O)ccc1OC(=O)c1ccco1` here?
Its Potency is inconclusive [activator, single point].

Which Potency does the source give for `COC(=O)c1cc(-c2ccc(OC)cc2)n[nH]1` here?
Its Potency is inconclusive [activator, single point].

Which Potency does the source give for `CCOc1ccc(-c2csc3nc[nH]c(=O)c23)cc1` here?
Its Potency is inconclusive [activator, single point].

With `Cc1ccccc1OCC(O)CN1CCN(CCN2C(=O)c3cccc4cccc(c34)C2=O)CC1` (stereo not drawn) as the compound, how does the “activation, negative = inhibition” value read?
The value was inactive: -2.98%.

With `Cc1cccnc1NC(=O)C1COc2ccccc2O1` (stereo not drawn) as the compound, how does the “activation, negative = inhibition” value read?
Its value is inactive: -1.35%.

For `C(=N/N1CCN(c2ccccc2)CC1)/c1cccs1`, which Potency is on record?
The Potency was inconclusive [activator, partial curve].

With `Cc1cc2nc(-c3ccc(NC(=O)c4cccnc4)cc3)oc2cc1C` as the compound, how does the Potency read?
The Potency was inconclusive [activator, full curve].

With `O=C(CC(=O)c1ccccc1)Nc1cccnc1Cl` as the compound, how does the Potency read?
The Potency was inconclusive [activator, single point].

Which “activation, negative = inhibition” value does the source give for `Cc1ccc(-c2n[nH]c(=S)n2/N=C/C=C\c2ccccc2[N+](=O)[O-])cc1` here?
The value was inactive: 0.973%.

With `C=CCSc1nnc(-c2cc(C(C)(C)C)nn2Cc2ccc(F)cc2)n1C` as the compound, how does the “activation, negative = inhibition” value read?
The value was inactive: -3.26%.

With `NC(=S)N/N=C/c1ccc(-c2ccc(SC(F)F)cc2)o1` as the compound, how does the “activation, negative = inhibition” value read?
Its value is inactive: -0.0674%.

With `Cc1nc(NC(=O)c2cc3c(s2)CCCCC3)sc1C(=O)N(C)C` as the compound, how does the Potency read?
The Potency was inconclusive [activator, partial curve].

For `O=C(CCc1ccc(S(=O)(=O)NC2CCCCC2)cc1)NCc1ccccn1`, which Potency is on record?
The Potency was inconclusive [activator, single point].

With `Cn1c(/C=C(\C#N)C(N)=S)ccc1-c1ccc(Br)cc1` as the compound, how does the Potency read?
The Potency was inconclusive [activator, single point].

With `CCOC(=O)Nc1ccc(C(=O)Oc2ccccc2)c(O)c1` as the compound, how does the Potency read?
Its Potency is inconclusive [activator, single point].

For `Cc1ccc(-n2nnc(-c3nccs3)n2)cc1`, which Potency is on record?
The Potency was inconclusive [activator, full curve, poor fit].

Which Potency does the source give for `CCCOc1ccc(-c2cn3ccccc3n2)cc1[N+](=O)[O-]` here?
The Potency was active: 2.24 µM.

For `CCCc1cc(C(=O)NCCc2ccccc2)no1`, which Potency is on record?
Its Potency is active: 2.24 µM.

For `COc1ccc(NC(=S)Nc2ncccc2C)c(OC)c1`, which Potency is on record?
Its Potency is inconclusive [activator, single point].

Which Potency does the source give for `COc1cc2c(cc1NC(=O)c1cccnc1)oc1ccccc12` here?
Its Potency is inconclusive [activator, partial curve].

Which Potency does the source give for `CC1(C)CN(c2ccc(N3CC(C)(C)C3=O)cc2)C1=O` here?
The Potency was inconclusive [activator, partial curve].

Which Potency does the source give for `CCCCOc1ccc(C(=O)Nc2cccc(C)n2)cc1` here?
The Potency was inconclusive [activator, full curve].

With `COc1ccc(Cl)cc1C(=O)Nc1nc2ccccc2[nH]1` as the compound, how does the Potency read?
Its Potency is inconclusive [activator, partial curve].

Which Potency does the source give for `C/C(=N\NC(=O)c1cccs1)c1ccc2ccccc2c1` here?
Its Potency is inconclusive [activator, partial curve].

Which Potency does the source give for `Cc1ccc2c(c1)NC(=O)c1cccnc1N2` here?
Its Potency is inconclusive [activator, partial curve].

Which Potency does the source give for `CC(C)c1ccc(Nc2nnc(SCC(=O)Nc3ncc(S(=O)(=O)c4ccc([N+](=O)[O-])cc4)s3)s2)cc1` here?
Its Potency is active: 1.41 µM.

Which Potency does the source give for `Cc1nn(-c2ccccc2)c(C)c1C(=O)NCCc1ccccc1` here?
The Potency was inconclusive [activator, partial curve].

With `COc1ccc2oc(C(=O)OCC(=O)N3CCN(S(=O)(=O)c4ccccc4)CC3)c(C)c2c1` as the compound, how does the “activation, negative = inhibition” value read?
Its value is inactive: -1.22%.

For `Cc1ccccc1CC1SC(N)=NC1=O` (stereo not drawn), which “activation, negative = inhibition” value is on record?
Its value is inactive: 0.845%.

With `Cc1ccc(CC(=O)N/N=C/c2ccc3c(c2)OCO3)cc1` as the compound, how does the Potency read?
Its Potency is inconclusive [activator, partial curve].

With `O=C(Nc1ccc(Cl)cc1)c1ccc(OC2CSC2)cc1` as the compound, how does the Potency read?
Its Potency is inconclusive [activator, partial curve].

With `COC(=O)CSc1nnc(CCc2ccccc2)n1C` as the compound, how does the “activation, negative = inhibition” value read?
Its value is inactive: -1.17%.

For `Cn1cc(C(=O)C(=O)NC2CCCCC2)c2ccccc21`, which Potency is on record?
Its Potency is inconclusive [activator, single point].

For `CN(c1cccc(NC(=O)c2ccc(C(C)(C)C)cc2)c1)S(C)(=O)=O`, which Potency is on record?
Its Potency is inconclusive [activator, full curve, poor fit].

Which “activation, negative = inhibition” value does the source give for `CCn1c(SCC(=O)Nc2nccs2)nnc1-c1ccco1` here?
The value was inactive: -18.2%.

For `O=C(NC1=NCCS1)c1ccc(OCC2CCCO2)cc1` (stereo not drawn), which Potency is on record?
The Potency was active: 0.355 µM.

Which Potency does the source give for `NC(=O)c1sc2nc(-c3ccco3)ccc2c1N` here?
Its Potency is inconclusive [activator, single point].

Which Potency does the source give for `CCOC(=O)c1sc(-c2ccc(Br)cc2)cc1N` here?
The Potency was active: 2.82 µM.

With `CCCc1cc(N2CCOCC2)n2ncc(-c3ccccc3)c2n1` as the compound, how does the “activation, negative = inhibition” value read?
Its value is inactive: 24%.

For `O=C(/C=C/c1ccccc1)Nc1cccnc1Cl`, which Potency is on record?
Its Potency is active: 2.24 µM.

For `Cc1ccccc1Cn1cc(NC(=O)c2cc(C3CC3)on2)cn1`, which Potency is on record?
The Potency was inconclusive [activator, full curve].

With `COc1ccc(C(=O)Nc2ccc3c(c2)nc(CCNC(C)=O)n3C)cc1` as the compound, how does the Potency read?
Its Potency is inconclusive [activator, partial curve].

Which “activation, negative = inhibition” value does the source give for `COCCNC(=O)CN(Cc1cccs1)C(=O)CCC(=O)Nc1nccs1` here?
The value was inactive: -7.53%.

Which Potency does the source give for `O=C(c1ccco1)N1CCC(c2ccccc2)C1` (stereo not drawn) here?
The Potency was inconclusive [activator, partial curve].

With `Cc1cc(-c2n[nH]c(=S)o2)c(C)n1-c1ccccc1` as the compound, how does the Potency read?
Its Potency is active: 2.51 µM.

Which Potency does the source give for `Cn1/c(=N\NC(=O)C2CCCCC2)sc2ccccc21` here?
Its Potency is inconclusive [activator, partial curve].

For `COc1ccccc1/C=C/C(=O)NC1CC2CCC1C2` (stereo not drawn), which Potency is on record?
Its Potency is inconclusive [activator, partial curve].

With `CCn1c(C)nc2cc(NC(=O)Nc3cccc(C(C)=O)c3)ccc21` as the compound, how does the Potency read?
The Potency was inconclusive [activator, partial curve].

For `Cc1[nH]n(C(N)=S)c(=O)c1N=Nc1cc(-c2ccc(Br)cc2)[nH]n1`, which Potency is on record?
The Potency was inconclusive [activator, partial curve].

With `O=C(COc1ccccc1)Nc1ccc(Cl)cn1` as the compound, how does the Potency read?
Its Potency is inconclusive [activator, partial curve].

Which Potency does the source give for `O=C(Cc1cccs1)Nc1nnc(-c2ccc(F)cc2)s1` here?
Its Potency is inconclusive [activator, partial curve].

Which “activation, negative = inhibition” value does the source give for `Cc1ccc(C)n1-c1ccc(-c2nnco2)cc1` here?
The value was inactive: 1.65%.

For `O=c1c2sccc2nc(SCc2cc(=O)n3cc(Cl)ccc3n2)n1Cc1ccccn1`, which Potency is on record?
Its Potency is active: 3.55 µM.

Which Potency does the source give for `CC(C)OC(=O)Nc1ccc2c(c1)N(C(=O)N1CCN(C)CC1)c1ccccc1CC2` here?
Its Potency is inconclusive [activator, partial curve].

For `Nc1c(N(CCO)C(=O)/C=C/c2ccco2)c(=O)[nH]c(=O)n1Cc1ccccc1`, which Potency is on record?
Its Potency is inconclusive [activator, partial curve].

Which Potency does the source give for `CCOC(=O)c1cnc2c(-c3ccc(Cl)cc3)cnn2c1C` here?
The Potency was active: 0.891 µM.

Which “activation, negative = inhibition” value does the source give for `COc1ccc(OCCC(=O)N2CCCCC2)cc1` here?
Its value is inactive: 28.6%.

For `Cn1c(N)c(S(=O)(=O)NCc2ccc(F)cc2)c(=O)n(C)c1=O`, which “activation, negative = inhibition” value is on record?
The value was inactive: 1.88%.

Which Potency does the source give for `CCOc1ccc(-c2nnc(-c3ccco3)o2)cc1OCC` here?
The Potency was inconclusive [activator, partial curve].

For `COc1ccc(C2=NOC(C(=O)NCC(C)C)C2)cc1` (stereo not drawn), which Potency is on record?
Its Potency is inconclusive [activator, single point].

With `COc1ccc(Nc2nccc3c2nnn3C)cc1` as the compound, how does the Potency read?
The Potency was active: 2.24 µM.

For `Oc1cccc(/C=N/c2c(-c3ccco3)nc3ccccn23)c1`, which Potency is on record?
Its Potency is inconclusive [activator, single point].

For `CCCn1c(=O)c(C)cn2nc(N)nc12`, which “activation, negative = inhibition” value is on record?
The value was inactive: -3.57% [at 46.1 µM].

With `COc1ccc(/C=C2\CCc3ccccc3C2=O)c(OC)c1OC` as the compound, how does the Potency read?
Its Potency is inconclusive [activator, single point].

Which “activation, negative = inhibition” value does the source give for `CCOC(=O)N/N=C\c1ccc(OC/C=C/c2ccccc2)c(OC)c1` here?
The value was inactive: 7.58%.

With `CCCCc1nc2cc(C(=O)N(C)C3CCOCC3)ccc2o1` as the compound, how does the Potency read?
Its Potency is active: 2.51 µM.

For `CC(C)Oc1cccc(C(=O)NC(=S)Nc2cccnc2)c1`, which Potency is on record?
Its Potency is inconclusive [activator, single point].

For `NC(=O)c1ccccc1NC(=O)c1ccc2ccccc2c1`, which Potency is on record?
The Potency was active: 0.562 µM.
